Reference: PubChem BioAssay AID1346428 (National Center for Advancing Translational Sciences (NCATS), 2018)
Several values for one entry are separate records, joined by “and”; a condition that tells them apart may be missing. Identical values can stand only once. Hit rate of the full screen: of about 48,000 compounds, about 1,200 (2.5%) were called active. About 2% were inconclusive and are not listed.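 How the source made its calls: active means activation of at least 60% and not above a set upper limit (about 1 call in 100 departs from these limits); inconclusive means activation of 40% to 60%, or above that upper limit; inactive means activation under 40%.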 This is one part of the list.

Biological target: Probable G-protein coupled receptor 32 (Homo sapiens) (UniProt O75388)
Experiment: qHTS for Agonists of Human Resolvin D1 Receptor DRV1; further: 0% is about no effect
Details: CHO-K1 GPR32 beta-arrestin PathHunter luminescence, 90 min; at 76.9 µM; active compounds read high; zero percent set by DMSO-only wells
How it was run: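 PathHunter beta-arrestin recruitment in CHO-K1 cells stably expressing ProLink-tagged GPR32. Cells were exposed to compound for 90 min at 37 C, then chemiluminescence was read after 1 h detection at ambient temperature; DMSO served as basal control.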

Chain of UniProt O75388 (O75388 whole entry, looked up): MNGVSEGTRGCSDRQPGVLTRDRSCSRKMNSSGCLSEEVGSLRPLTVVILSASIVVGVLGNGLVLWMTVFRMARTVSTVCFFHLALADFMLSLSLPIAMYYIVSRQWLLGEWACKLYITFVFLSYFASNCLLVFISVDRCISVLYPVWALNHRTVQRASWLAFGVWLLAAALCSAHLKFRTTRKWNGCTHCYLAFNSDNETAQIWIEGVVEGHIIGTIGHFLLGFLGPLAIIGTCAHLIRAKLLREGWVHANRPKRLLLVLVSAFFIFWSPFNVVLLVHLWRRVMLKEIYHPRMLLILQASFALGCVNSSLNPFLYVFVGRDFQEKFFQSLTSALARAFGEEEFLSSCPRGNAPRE

activation, active:
Cc1cc(CN2CCN(c3ccccc3F)CC2)cs1 102%

activation, inactive:
CCOc1ccc(CNC(=O)C2Cc3ccccc3N2C(=O)CC)cc1OC (stereo not given) -13.4%, COc1ccc(NC(=O)c2oc3ccc(S(=O)(=O)N4CCCCC4)cc3c2C)cc1 14.6%, CCCc1nn2c(=O)cc(COC(=O)c3ccccc3NC(=O)COc3ccccc3F)nc2s1 -6.84%, CCc1ccc(-n2nc(C)c3c(C)cc(=O)n(Cc4nc(-c5ccccc5)oc4C)c32)cc1 -18.9%, Cc1ccc(NC(=O)CN2C(=O)CCc3cc(S(=O)(=O)N4CCOCC4)ccc32)cc1F 6.98%, COc1ccc(OC)c(CNC(=O)c2ccc(Sc3ccc(C)cc3)c(N)c2)c1 -14.5%, CCCOC(=O)c1c(NC(=O)c2nc3ncccn3n2)sc(C(N)=O)c1C 18%, Cc1nc2c(C(=O)NCCCN(CC(C)C)CC(C)C)cnn2c(C)c1Cc1c(F)cccc1Cl -10%, Cc1ccccc1CNC(=O)CCCn1c(=O)c2cccn2c2cccnc21 -16.7%, CNc1ncnc2c1cnn2-c1ccc(C)c(C)c1 39.9%, Cc1cccc(NC(=O)c2ccc(-n3cnc4cccnc43)cc2)c1C -5.99%, Cc1ccc(N2CC(NC(=O)c3cccs3)CC2=O)cc1C (stereo not given) 4.74%, Oc1ccccc1-c1nc(/C=C/c2ccccc2Cl)nn1-c1ccccc1 -10.7%, Fc1ccc([C@@H]2CCNC[C@H]2COc2ccc3c(c2)OCO3)cc1 2.87% and -19.2%, COc1cc(NC(=O)c2cccc3c2C(=O)N(C2CCCCC2)C3)cc(OC)c1OC -32.2%, CCc1ccc(C(=O)c2cn(CC(=O)Nc3ccc4c(c3)OCO4)c3ccc(OC)cc3c2=O)cc1 35.8%, Cn1c(C(=O)Nc2cccc(C(F)(F)F)c2)cc2c(=O)n3ccccc3nc21 4.29%, COc1ccc(OC)c(CNC(=O)C(C)n2c(C)c3cnn(-c4ccccc4)c(=O)c3c2C)c1 (stereo not given) -22.3%, CCOc1ccc(NC(=O)C2CCC(CNS(=O)(=O)c3ccc(Br)s3)CC2)cc1 (stereo not given) 38.7%, N.N.O=C(O)C1(C(=O)O)CCC1.[Pt] -4.23%, CCOc1cc(/C=C(\C#N)C(=O)NCC2CCCO2)ccc1O (stereo not given) -30.9%, Cc1ccccc1OCc1ccc(-c2nc(C#N)c(NCc3cccnc3)o2)o1 5.29%, CC1=C(c2ccc(C)c(C)c2)S(=O)(=O)N=C1N1CCC(C(=O)N2CCC(C)CC2)CC1 -7.31%, O=C(CN1C(=O)COc2ccc(Cl)cc21)Nc1ccc(F)cc1 -4.68%, CCN(C(=O)c1nn(-c2ccc(OC)c(Cl)c2)c(=O)c2c1c1ccccc1n2C)c1cccc(C(F)(F)F)c1 -9.56%, CCCOc1cccc(C(=O)Nc2cccc3cccnc23)c1 -6.07%, O=C(OCc1cc(=O)n2nc(-c3cccs3)sc2n1)c1ccc(Cl)cc1 3.73%, CC(C)OCCCNC(=O)c1ccc(CSc2nc3cccnc3n2Cc2ccccc2)cc1 -5.87%, COc1ccc(-c2nc3ccc(NS(=O)(=O)c4ccc(C)cc4)cc3o2)cc1 7.44%, O=c1[nH]cnc2c1ncn2[C@H]1CC[C@@H](CO)O1 -11.3%, COC(=O)c1c(SCC(=O)Nc2cc(OC)cc(OC)c2)[nH]c2ccc(C)cc2c1=O -9.91%, Cc1nc2sccn2c(=O)c1S(=O)(=O)Nc1ccc(N2CCOCC2)c(Cl)c1 15.9%, Cc1ccc(NC(=O)Cn2ncn3c(cc4ccccc43)c2=O)cc1F 5.73%, CCC1=C(c2ccc(C)cc2)S(=O)(=O)N=C1N1CCC(C(=O)Nc2ccccc2F)CC1 -9.14%, Cc1ccc(Cn2c(C(=O)NCc3ccccc3Cl)cc3sccc32)cc1 -14.1%, Cc1nc2nc(CNC(=O)OC(C)(C)C)nn2c(C)c1CCC(=O)NCc1ccc(F)cc1 -6.93%, CCOc1ccc(CNCc2c(C(=O)O)c(C)n(Cc3cccc(OC)c3)c2C)cc1OC 14.1%, Cc1cccc(NC(=O)CSc2nnc3[nH]c(=O)cc(-c4ccccc4)n23)c1C -19.6%, CCC1CCC(C(=O)NC(C(=O)Nc2cccc(OC)c2)C(C)C)CC1 (stereo not given) -0.91%, O=C(CCC(=O)N1CC2CCCN2c2ccccc21)NCc1ccc(Cl)cc1 (stereo not given) 24.2%, COc1ccc(C2Nc3ccccc3-c3cc(C)nn32)cc1OC (stereo not given) -26%, COC(=O)c1cc2sc(C)cc2n1Cc1cccc(OC)c1 -29.8%, COc1ccc(CNC(=O)CCCN2C(=O)CSc3c2c(C)nn3-c2ccccc2)cc1 -20.4%, CCOC(=O)c1c(C)[nH]c(C)c1S(=O)(=O)N1CCCC(C(=O)NCc2cccc(C)c2)C1 (stereo not given) -15.1%, Cc1cccn2c(=O)c(C(=O)NCc3ccc(F)cc3)c(O)nc12 1.61%, CCN(CC)CCNC(=O)C1CCN(c2nn3cc(-c4ccc(F)cc4)nc3s2)CC1 -4.96%, CCOC(=O)c1c(-c2ccc(OC)cc2)oc2ccc(OCc3ccccc3C)cc12 -3.71%, CCOc1cc(C(=O)Nc2cc3c(cc2N2CCOCC2)n(C)c(=O)n3C)cc(OCC)c1OCC 8.17%, FC1(F)C(F)(F)C(F)(F)C2(F)C(F)(F)C(F)(F)C(F)(F)C(F)(F)C2(F)C1(F)F (stereo not given) 6.37%, O=c1cc(-c2ccccc2)nc(SCc2nc(-c3ccccc3Cl)no2)[nH]1 8%, COc1ccc(CC(=O)NCC(c2cccs2)S(=O)(=O)c2ccc(C)cc2)cc1 (stereo not given) 9.54%, COc1cccc(CNC(=O)Cc2c(C(=O)O)c(C)cn2C)c1 -2.56%, CCOC(=O)c1c(NC(=O)c2cc(-c3cccc(OC)c3)on2)sc2c1CCCC2 -3%, O=C(NCc1cccs1)c1ccc(CSc2nc3cccnc3n2Cc2ccccc2F)cc1 -43.2%, CC(C)c1ccc(NC(=O)CN2C(=O)COc3ccc(S(=O)(=O)N4CCCCCC4)cc32)cc1 -19%, CCc1ccc(NC(=O)Cn2c(=O)n(Cc3ccco3)c(=O)c3oc4ccccc4c32)cc1 4.68%, O=C(NCc1cccc(Cl)c1)c1ccc2nc(N3CCCCC3)sc2c1 -9.46%, COc1ccccc1N1CCN(c2ncnc3onc(-c4cccc(Cl)c4)c23)CC1 -7.83%, CCOC(=O)c1c(C)n(-c2ccccc2)c2ccc(OC(=O)c3cccc(OC)c3OC)cc12 -5.24%, Cc1cc(C)c(NC(=O)Cn2cnc3c(oc4ccccc43)c2=O)c(C)c1 0.733%, Cc1oc(-c2ccccc2Cl)nc1CSc1nc2ncccc2[nH]1 -3.53%, COc1ccc(S(=O)(=O)Nc2c(C)nc3nc(C)[nH]n3c2=O)cc1 9.28%, CCc1cccc(N2C(=O)CSC23C(=O)Nc2ccccc23)c1 (stereo not given) -5.98%, CCN(CC)C(=O)c1ccc(Nc2nnc(-c3ccc(C)c(S(=O)(=O)NC)c3)c3ccccc23)cc1 -7.24%, CCCN(C(=O)c1cc2c(=O)[nH]c3ccc(C)cc3c2s1)c1ccc(CC)cc1 -12.4%, CCc1nnc2c(N3CCN(c4cc(Cl)ccc4C)CC3)nc3ccccc3n12 -11.8%, CCOC(=O)C1CCCN(C(=O)c2nn(-c3ccc(C)cc3)c(=O)n(C)c2=O)C1 (stereo not given) -5.85%, CCOc1ccc(CNS(=O)(=O)c2ccc3c(c2)CCCN3C(C)=O)cc1OC 12.1%, CCCC(=O)OCOC(=O)C1=C(C)NC(C)=C(C(=O)OC)C1c1cccc(Cl)c1Cl (stereo not given) 34.9%, CC1CCN(C(=O)c2cc(-c3ccc(Br)cc3)on2)CC1 -9.88%, CCOc1ccc(NC(=O)CCNS(=O)(=O)c2cccc3nonc23)cc1 -16.7%, COc1ccc2c(c1)c(N1CCCC1=O)c(C(=O)Nc1ccccc1C(F)(F)F)n2C 3.43%, COc1ccc(C2=C(C)C(=O)N(Cc3ccc(C(=O)NCc4cccc(C)c4)cc3)S2(=O)=O)cc1 -8.94%, COc1ccc(-c2noc(N3CCC(C(=O)N4CCN(c5cccc(C)c5C)CC4)CC3)n2)cc1 -0.0156%, COc1ccc(C2=NC(c3ccncc3)=Nc3ccc(OC)cc3N2)cc1 -29%, O=C1[C@@H]2CSC(c3ccc(Cl)cc3)N2C(=O)N1c1ccccc1 (stereo not given in full) -0.85%, CC(C)c1ccc(N2C(=O)CSC23C(=O)N(C)c2ccccc23)cc1 (stereo not given) -27.1%, O=C(COc1ccc(F)cc1)Nc1ccc2nc(SCC(=O)N3CCOCC3)sc2c1 21.4%, COc1ccc(-c2noc(COc3cc(C)ccc3C)n2)cc1OC -18.3%, Cc1cccc(NC(=O)N2CCC3(CC2)Oc2ccccc2C(=O)N3Cc2ccccc2F)c1C -12.7%, O=C(Cc1ccc(F)cc1)Nc1nnc2n1CCS2 -5.16%, CCOc1ccc(C(=O)c2oc3ccccc3c2NC(=O)Cc2coc3ccc(CC)cc23)cc1 3.5%, CN(C)CCCN1c2ccccc2CCc2ccccc21 -3.53% and -12.9%, Cc1cccc(C(=O)NCN2CCN(c3ccccc3C#N)CC2)c1 -8.74%
